Data from PMC7718735.
Results are given in words; binding and its absence hold for the method and conditions named. Some binding calls cover weakened binding; strength is not graded here.

T1: Cut11 MYTH bait (wild type) (S. pombe) (UniProt O13961)
T1 sequence: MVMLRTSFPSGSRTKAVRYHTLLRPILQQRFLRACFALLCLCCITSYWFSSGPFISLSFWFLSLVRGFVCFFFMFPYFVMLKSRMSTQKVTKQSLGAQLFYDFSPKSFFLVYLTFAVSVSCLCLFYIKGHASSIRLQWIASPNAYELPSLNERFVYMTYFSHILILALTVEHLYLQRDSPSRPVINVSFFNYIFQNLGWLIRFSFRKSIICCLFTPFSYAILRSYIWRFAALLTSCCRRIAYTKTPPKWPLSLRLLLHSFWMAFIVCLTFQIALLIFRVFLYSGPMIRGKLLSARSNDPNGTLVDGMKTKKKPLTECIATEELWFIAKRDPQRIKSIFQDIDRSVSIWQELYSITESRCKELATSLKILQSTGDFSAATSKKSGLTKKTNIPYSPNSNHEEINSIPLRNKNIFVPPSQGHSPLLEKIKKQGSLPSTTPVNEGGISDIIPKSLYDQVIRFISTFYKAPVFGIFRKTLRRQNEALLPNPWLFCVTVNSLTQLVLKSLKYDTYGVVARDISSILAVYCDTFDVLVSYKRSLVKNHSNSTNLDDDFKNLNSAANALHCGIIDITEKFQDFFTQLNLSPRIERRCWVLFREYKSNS

B1: Rtn1 MYTH prey (protein, UniProt P53694 1-308)
chain: MSEQHSLNPFESGSVTASDVAAAKSGAEDLVNTLTAHTVHPSTELPSATSFPSALPNSENPVIQNISSSSSEPHHTSQSTPGETSSPVCPVSGAHGGADKKCPALEAGCPFTNTTKQNVDPEISNALWSVLTWKNTSCSFSTLMSILALVYVPSWINLPRLFFRTFRYVFLITSIIEFGGLFASNGKRGVLSHFRSSYITCDSKALDRIVNSIVDIFNVMLIQFQRILFAESPILTFTASVAAFIEFFLSGFLSYKSLFVWNVLFAFILPRLYVCNERSIKHLVASLERSGDKLKKQATETINTTVNK
B2: Yop1 MYTH prey (protein, UniProt Q9UU91 1-182)
chain: MSFQVRVKQNMQDLDNRLAAFPQLNSLEKNFGVSKLYVFLTAAGIYALFLFLNWGGFLLTNLLAFAMPAFFSINAIETTNKADDTQWLTYYLVTSFLNVIEYWSQLILYYVPVYWLLKAIFLIWLALPKFNGATIIYRHLIRPYITPHVIRICKSVSRQNAAPAPTASSFAHTTATDIPPSI
B3: Yip1 (SPCC61.04c) MYTH prey (protein, UniProt O94348 1-227)
chain: MAYYNNPANLQYYDYSYTADNSFNTQSRAAGFYDEPLHEPLSQGWLAAFSTSGYPGEPSLLEELEINFGHIKQKTTHVLNPFKHVDVHIMDDTDMAGPILFCLLFSTFLSLHGRSHFGYIYGIALLGSLSLHFVLRLMSAKNLFFTRTVSVLGYSLLPLVVIAFFKNIFTFNGIAGYALAALACIWCTYAASAMFVGILQVNNMRFLVAYPIALFYGVFAVITVFSK
B4: Sey1 MYTH prey (protein, UniProt Q9UTE0 1-762)
chain: MSTASNRVSTQIVDEHKQFNNELPKFMQSVGLLDAGFNYHVVAVLGSQSTGKSTLLNNLFGTSFSVMDASKRQQTTKGIWLSKANNSPILVMDVEGTDGRERGEDQDFERKSALFSISTSEVIIVNMWENQVGLYQGSNMALLKTVLEVNLQLFHNKKERCLLQFVIRDFLGNTSMENLADTIMTDLNNIWASLSKPEGFENSVINDFFDVGFTGLPHKILCSDAFSEAVDSLRERFVDNNNSDYIFNVSYHKKIPADGFSLYTREIWDTIENNKDLDLPTQQQLLAQYRCDEIITEVMEPFSTACTILQKEFLPGNLCKDLPTKLLNMFETVIEAYDRQASRYNVHIYQKKKQELIASVDSHLYVFFQAQLNALHKELIKSFFDASNEFPSDTPFKESSSIKINELVNKMREEGESLSLPHVHWDVDPFILKLSEELTQNSETLCKEKLKEKLEELFTGFEFEVSEAVEVAFQKLSHNVWDTLLNEFLAAQNTTIEKIKNIVPFYVDIDDTKTTEEYIINFKKNSWLFFRKKIDSEMSEVLLQQRLRVYFEELFRYDSDGMPKLWKKSGTIDRDYRESLTKTLDLINVLASIKVSDGNYPDLNVDIKTLEPEYTSPASFFTILNRRRVSDISVNFKRSADLIFMDCKRSVINTTTRIPPYFWVLLIVLGWNEFMAILRNPFVFMILMFGGTVVYGLYISGLIWPAKMVLERATNNLVDLATDRFSNTYQEQVQQRAMQRTEKSGSPVASADDAEAEKTALS
B5: Dlc1 MYTH prey (protein, UniProt Q9UTS6 1-111)
chain: MSCPIDSKKLEEICLEAAQPVLKASEYDGDKTAEMNQSVIYAVLNALNKETQSYKWIVSSTLVQKLPEDHPSRGVHAAHAACWNCEKDGMTTIKESGEAIDVVLSIMWISI
B6: Dlc2 MYTH prey (protein, UniProt Q9UR05 1-85)
chain: MAVIKAVDMSEKMQQEAIHAAVQAMEKFTIEKDIAAFIKREFDKKFSPTWHCIVGRNFGSFVTHESRHFIYFYLGTVAFLLFKSG
B7: Ely5 MYTH prey (protein, UniProt O94384 1-298)
chain: MLKMEDDQFERFVGLFSMKDEDFPYNSQVTNEIQTFRKQQVDSQLFFDVLLSFIEGIEDPSSLYPPKSIDDLQSLFMIIENSNIDELKQQCFYYYLLKDWEKSETYSEQVSLPKNYQHLMDGYYYLDRLKFEEAINHLLLPDVLPNFPDKIIETLYSNEKYKFLIRFVSFVGPPLDTFRKEECYALSLVRYSFLASYHYMKKCTKPLVLWEEMIQLILESNDTQSCKLIVSLPLSQEECEVLFSLLRSKKEPLYLNTLLALLVESNNIQEALELSSNSTHLQKSAVNTYLHKLNSLSS

Target: T1, Cut11 MYTH bait (wild type) (S. pombe)
Assay: two-hybrid; split-ubiquitin membrane yeast two-hybrid (MYTH) in S. cerevisiae; bait-Cub-LexA-VP16 strains mated with the arrayed Nub prey library, diploids spotted in quadruplicate on SD-leu-trp-ade-his with 25 mM 3-AT, imaged every 24 hr for 4 days; positive by a colony density cutoff

Binder	binding
B1	binds
B2	binds
B3	binds
B4	binds
B5	binds
B6	binds
B7	no binding
